The values that follow come from publication PMC4336329 (PLoS ONE, 2015).

Molecules are shown by their SMILES. About 2,200 (0.71%) of roughly 310,000 compounds showed an effect of 50% or more. Effects have a minus sign here. The list shows a part of the results.

human ether-à-go-go-related gene (hERG) potassium channel, sequence (Q12809 whole entry, looked up): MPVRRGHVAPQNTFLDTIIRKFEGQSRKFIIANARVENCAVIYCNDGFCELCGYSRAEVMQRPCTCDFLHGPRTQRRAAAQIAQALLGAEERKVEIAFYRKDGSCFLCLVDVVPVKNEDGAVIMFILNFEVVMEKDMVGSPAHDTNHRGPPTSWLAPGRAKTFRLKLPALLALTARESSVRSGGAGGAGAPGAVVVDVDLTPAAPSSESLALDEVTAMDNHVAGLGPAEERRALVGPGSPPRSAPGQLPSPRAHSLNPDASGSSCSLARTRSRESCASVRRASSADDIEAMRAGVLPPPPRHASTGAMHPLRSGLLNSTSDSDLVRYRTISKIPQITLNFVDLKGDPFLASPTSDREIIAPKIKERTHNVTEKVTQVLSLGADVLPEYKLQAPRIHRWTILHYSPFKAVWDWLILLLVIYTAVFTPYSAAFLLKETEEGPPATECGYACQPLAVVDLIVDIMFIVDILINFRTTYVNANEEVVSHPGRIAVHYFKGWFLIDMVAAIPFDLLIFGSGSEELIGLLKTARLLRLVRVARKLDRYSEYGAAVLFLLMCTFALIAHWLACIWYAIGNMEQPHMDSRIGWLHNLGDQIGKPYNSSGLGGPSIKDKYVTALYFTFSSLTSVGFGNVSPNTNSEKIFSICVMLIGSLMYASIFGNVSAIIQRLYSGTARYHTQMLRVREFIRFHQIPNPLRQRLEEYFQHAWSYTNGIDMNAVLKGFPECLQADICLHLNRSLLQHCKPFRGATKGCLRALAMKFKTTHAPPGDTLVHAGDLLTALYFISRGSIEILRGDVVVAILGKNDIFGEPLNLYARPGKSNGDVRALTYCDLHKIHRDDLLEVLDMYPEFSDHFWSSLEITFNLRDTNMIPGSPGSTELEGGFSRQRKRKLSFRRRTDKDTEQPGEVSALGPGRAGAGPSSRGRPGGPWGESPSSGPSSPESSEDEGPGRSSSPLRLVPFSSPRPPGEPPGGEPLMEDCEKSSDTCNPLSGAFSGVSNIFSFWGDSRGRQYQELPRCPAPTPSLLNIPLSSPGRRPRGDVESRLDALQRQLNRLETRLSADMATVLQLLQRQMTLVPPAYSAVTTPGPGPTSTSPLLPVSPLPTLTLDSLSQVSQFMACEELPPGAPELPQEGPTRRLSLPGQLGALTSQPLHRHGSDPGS

The assay has as its target human ether-à-go-go-related gene (hERG) potassium channel (human, UniProt Q12809). The assay can be described thus: primary screen, population patch clamp on CHO cells stably expressing hERG.
In the case of `COC(=O)c1ccccc1OCC(=O)N1CCN(c2ccc(F)cc2)CC1`, the “hERG current change (%, negative = inhibition) at 1uM” value was -13.7%.

As for `COC(=O)C1=C(C)N(Cc2ccccc2)C(=O)N[C@H]1CCc1ccccc1`, the “hERG current change (%, negative = inhibition) at 1uM” value amounted to 9.45%. Turning to `Cc1cc(C)cc(NC(=O)CN2C(=O)COc3ccc(S(=O)(=O)N4CCCC4)cc32)c1`, the “hERG current change (%, negative = inhibition) at 1uM” value worked out at 10.1%. To `COC(=O)Cc1c[nH]c2cccc(OCC(O)CN(Cc3ccc([N+](=O)[O-])cc3)C(C)(C)C)c12.Cl` (stereo not drawn) belongs 4.16%. To `COc1ccc(S(=O)(=O)N2Cc3ccccc3CC2C(=O)N2CCOCC2)cc1` (stereo not drawn) belongs -1.68%; to `COc1ccc(Nc2nnc(SCC3CCCO3)s2)cc1` (stereo not drawn), -7.15%. Regarding `O=C(Nc1ccc(Cl)cc1)Nc1ccc2c(c1)OCO2`, the “hERG current change (%, negative = inhibition) at 1uM” value is recorded as 12.5%. To `Cc1ccc(S(=O)(=O)NC(=NC(C)C)c2ccccc2)cc1` belongs 2.11%; to `COc1ccc(S(=O)(=O)N2CCN(C(=O)C3CCCCC3)CC2)cc1`, 17.3%. For `O=C(NCCCN1CCCC1=O)c1ccc([N+](=O)[O-])s1`, the “hERG current change (%, negative = inhibition) at 1uM” value is 3.09%.

Consider `CCc1nnc(NC(=O)c2ccc(-c3cccc(C(F)(F)F)c3)o2)s1`, for which the “hERG current change (%, negative = inhibition) at 1uM” value is 10.7%.

Take `CC1CCN(C(=O)C(=O)Nc2sc3c(c2C(=O)O)CC(C)(C)OC3)CC1`: the “hERG current change (%, negative = inhibition) at 1uM” value came to 15%. To `COc1cc(C(=O)Nc2ccccc2SCc2cc(=O)n3nc(C)sc3n2)cc(OC)c1OC` belongs 13.4%. To `O=c1c(Cl)cc(Cl)nn1-c1ccccc1` belongs -2.11%. `O=C(Cc1coc2ccc3ccccc3c12)Nc1nnc(C2CC2)s1`: the “hERG current change (%, negative = inhibition) at 1uM” value was 10.6%. As to `COc1ccc(CCNC(=O)C(=O)NCC2OCCN2S(=O)(=O)c2ccccc2)cc1` (stereo not drawn), the “hERG current change (%, negative = inhibition) at 1uM” value is listed as 8.53%. With `COc1ccccc1CNC(=O)CN1CCN(c2ccc(C(C)=O)cc2)CC1` the figure was 10.6%; with `CC(C)c1ccc(N(CC(=O)NC2CCCCC2)C(=O)CNC(=O)c2ccco2)cc1`, 2.41%; with `O=C(CN1CCCCCC1)Nc1ccc(Br)cc1[N+](=O)[O-]`, 15.4%. To `O=C(c1cc(-c2ccco2)nc2ccccc12)N1CCCC(C(F)(F)F)C1` (stereo not drawn) belongs 5.58%; to `Cc1cccc(NC(=O)COc2cccc3c2CCN(C)C3=O)c1C`, -4.87%. To `CSCCC(NS(=O)(=O)c1c(Cl)cccc1Cl)C(=O)O` (stereo not drawn) belongs 12.8%; to `NC(=S)Nn1c(-c2ccccc2)nc2ccccc2c1=O`, 11%; to `O=S(=O)(Nc1ccc(N2CCOCC2)cc1)c1cc(Cl)ccc1Cl`, 7.82%. Take `O=C(O)c1cnc(-c2ccccc2)nc1Sc1ccccc1`: the “hERG current change (%, negative = inhibition) at 1uM” value was 17.9%. As for `CC(C)CN(C(=O)CCCc1nc2ccccc2c(=O)[nH]1)c1c(N)n(Cc2ccccc2)c(=O)[nH]c1=O`, the “hERG current change (%, negative = inhibition) at 1uM” value worked out at 19.1%. On to `Cc1ccccc1CSCc1nc2ccccc2[nH]1`, for which the “hERG current change (%, negative = inhibition) at 1uM” value came out at 9.14%. With `O=C(c1ccc(C(F)(F)F)cc1)C1CCCN(C(=O)CCN2CCCO2)C1` (stereo not drawn), the “hERG current change (%, negative = inhibition) at 1uM” value is 3.83%.

As for `Cc1ccc(C)c(N2CCN(C(c3ccc(N(C)C)cc3)c3nnnn3C(C)(C)C)CC2)c1` (stereo not drawn), the “hERG current change (%, negative = inhibition) at 1uM” value is listed as 7.25%. Turning to `CC(=O)Nc1ccc(S(=O)(=O)NCC(=O)OCC(=O)NC(=O)c2cccn2C)cc1`, the “hERG current change (%, negative = inhibition) at 1uM” value was -6.07%.

Take `Cc1csc(=O)n1CC(=O)OCC(=O)Nc1cc(S(=O)(=O)N2CCOCC2)ccc1Cl`: the “hERG current change (%, negative = inhibition) at 1uM” value was determined as 8.22%. To `Cc1ccc2oc(=O)cc(CN3CCCCC3)c2c1` belongs 12.5%; to `COc1ccc(OCCNC(=O)c2ccccc2Cl)cc1`, 10.8%.

Regarding `O=C(Nc1ccc(C(=O)N2CCCCC2)cc1)c1ccccc1Cl`, the “hERG current change (%, negative = inhibition) at 1uM” value is -6.44%. `CCOC(=O)CNC(=O)C1(/C=C/c2ccccc2)CC(=O)N1c1ccc(OC)cc1` (stereo not drawn): the “hERG current change (%, negative = inhibition) at 1uM” value was 12.3%. To `COc1ccc(CCN2CC(C(=O)Nc3nnc(Cc4ccccc4)s3)CC2=O)cc1OC` (stereo not drawn) belongs 2.87%; to `CCN1C(=O)CS/C1=C(\C#N)S(=O)(=O)c1ccccc1`, 9.68%. In the case of `Cc1ccc(-c2cc(-c3ccc(Cl)cc3)c(C#N)c(N)n2)o1`, the “hERG current change (%, negative = inhibition) at 1uM” value is 1.06%. To `CN(C)S(=O)(=O)c1ccc(NC(=O)C2CC(=O)N(Cc3ccccc3)C2)cc1` (stereo not drawn) belongs 14.7%; to `O=C(CCCN1C(=O)S/C(=C/C=C/c2ccccc2)C1=O)Nc1ccc(C(=O)O)cc1`, 15%. As for `CC(CNC(=O)c1cc(COc2c(F)cccc2F)on1)Oc1cccnc1` (stereo not drawn), the “hERG current change (%, negative = inhibition) at 1uM” value came to 7.88%. Consider `Cc1nc2sc(C(c3cccs3)N3CCN(C(=O)c4ccco4)CC3)c(O)n2n1` (stereo not drawn), for which the “hERG current change (%, negative = inhibition) at 1uM” value stood at 12.7%. Turning to `CO/N=C(\c1nonc1N)N1CCN(c2ccc([N+](=O)[O-])cc2Cl)CC1`, the “hERG current change (%, negative = inhibition) at 1uM” value was found to be 13.9%. On to `CC(=O)N=c1c(C#N)cc2c(=O)n3cccc(C)c3nc2n1CCCOC(C)C`, for which the “hERG current change (%, negative = inhibition) at 1uM” value was -13.3%.

With `CCOC(=O)N1CCN(S(=O)(=O)c2cc(C)c(C)cc2C)CC1`, the “hERG current change (%, negative = inhibition) at 1uM” value was 9.08%.

Turning to `COC(=O)c1ccc(NC(=O)CSc2nn3c(=O)c(C)nnc3s2)cc1`, the “hERG current change (%, negative = inhibition) at 1uM” value is on record as 12.4%. With `CCCCn1c(N)c(N(CC)C(=O)c2ccccc2F)c(=O)[nH]c1=O`, the “hERG current change (%, negative = inhibition) at 1uM” value was found to be 19.7%.

For `Cc1ccccc1Cn1c2ccccc2c2cnn(CC(=O)NCc3ccco3)c(=O)c21`, the “hERG current change (%, negative = inhibition) at 1uM” value is on record as 11%. As for `CC(=O)OC[C@H]1O[C@H](C/C=N/O[C@@H](C)c2cn([C@H](CO)Cc3ccccc3)nn2)C=C[C@@H]1OC(C)=O`, the “hERG current change (%, negative = inhibition) at 1uM” value was -0.583%. With `COc1ccc(Oc2ccc(N/C=C3\CCCC3=O)cc2)cc1` the figure was 6.71%; with `Cc1c(Cl)c([N+](=O)[O-])nn1CCCC(=O)Nc1cccc(O)c1`, 3.8%; with `N#Cc1c(Nc2ccccc2)c(/C=N/NCCO)c[nH]c1=O`, 12.4%. To `COc1ccc(O[C@H]2C=C[C@@H](c3ccccc3)O[C@@H]2COC(=O)CC/C(C)=N/OC[C@@H](O)COCc2ccco2)cc1` belongs 6.31%; to `Cc1ccc(NC(=O)C2CCN(c3cnccn3)CC2)cc1`, 21.4%.
